# Measurements published in the supplement of paper PMC8183993.
# Values joined by “and” are separate entries in the source; they are usually repeats but may differ in a detail not shown here. Equal entries are not always repeated. Structures can show the parent of a compound that is named as a salt. ± gives the standard deviation of the averaged measurements. Over roughly 3,100 compounds, “mean cytoplasmic OPP incorporation (global translation) relative to DMSO” has its median near 100; the lowest 2% begin near 56. The list shows a part of the results.
# System: U2OS
# Assay: mean cytoplasmic OPP incorporation (global translation) relative to DMSO (% of DMSO); higher = more protein synthesis
# Conditions: 10 µM; 24 h
# Method: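 Primary image-based screen in U2OS cells: compounds at 10 uM for 24 h, then a 1 h o-propargyl-puromycin (OPP) pulse, click labelling, and high-throughput microscopy. Mean cytoplasmic OPP intensity and nuclei count were normalised to DMSO wells within each plate (DMSO = 100) and averaged over triplicate plates.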
row,SMILES,mean cytoplasmic OPP incorporation
1,CC1(C)S[C@@H]2[C@H](NC(=O)[C@H](N)c3ccccc3)C(=O)N2[C@H]1C(=O)O [Ampicillin trihydrate],100
2,CC1(C)S[C@@H]2[C@H](NC(=O)[C@H](N)c3ccccc3)C(=O)N2[C@H]1C(=O)O [Ampicillin sodium],102
3,CCOc1cc(C(=O)Nc2ccc(Cl)c(-c3nc4ccccc4[nH]3)c2)cc(OCC)c1OCC,116
4,CN(C)C(=O)n1nnnc1Cc1ccc(-c2ccccc2)cc1,106
5,C=C[C@H]1CN2CC[C@H]1C[C@H]2[C@H](O)c1ccnc2ccc(OC)cc12 [Quinine HCl 2H2O],100
6,N[C@@H](Cn1ccc(=O)n(Cc2ccccc2C(=O)O)c1=O)C(=O)O,97 and 95.8
7,O=C1[C@@H]2[C@H]3CC[C@H](C3)[C@@H]2C(=O)N1C[C@@H]1CCCC[C@H]1CN1CCN(c2nsc3ccccc23)CC1 [Lurasidone HCl],106
8,CCCCC[C@H](O)/C=C/[C@H]1[C@H](O)CC(=O)[C@@H]1C/C=C\CCCC(=O)O [Prostaglandin E2],99.3
9,N/C(=N\C(=O)c1nc(Cl)c(N)nc1N)NCc1ccccc1 [Benzamil],100
10,N/C(=N\C(=O)c1nc(Cl)c(N)nc1N)NCc1ccccc1 [Benzamil hydrochloride],96.9
11,O=C(CCNNC(=O)c1ccncc1)NCc1ccccc1 [Nialamide],99.3
12,CCCn1c(=O)c2[nH]c(C3CCCC3)nc2n(CCC)c1=O,103
13,Nc1ccc(-c2ccc3ncc4ccc(=O)n(-c5cccc(C(F)(F)F)c5)c4c3c2)cn1 [Torin 2],67.6 ± 3.6
14,Cc1nc2ccccn2c(=O)c1CCN1CCC(C(=O)c2ccc(F)cc2)CC1 [Pirenperone],108
15,NC(=O)c1cnccn1 [Pyrazinamide],100
16,CO[C@@H]1[C@H](OC(=O)/C=C/C=C/C=C/C=C/C(=O)O)CC[C@]2(CO2)[C@H]1[C@@]1(C)O[C@@H]1CC=C(C)C [Fumagillin],85.9
17,Nc1nc(N)c(N=O)c(OCC2CCCCC2)n1,90.1 ± 0.98
18,C#Cc1cccc(Nc2ncnc3cc(OCCOC)c(OCCO)cc23)c1 [OSI-420 (Desmethyl Erlotinib)],85.4
19,Cn1cnc2c(F)c(Nc3ccc(Br)cc3F)c(C(=O)NOCCO)cc21,92.3
20,CC(=O)O[C@H]1C(=O)[C@@]2(C)[C@H]([C@H](OC(=O)c3ccccc3)[C@]3(O)C[C@H](OC(=O)[C@H](O)[C@@H](NC(=O)c4ccccc4)c4ccccc4)C(C)=C1C3(C)C)[C@]1(OC(C)=O)CO[C@@H]1C[C@@H]2O [Paclitaxel],101
21,CC(=O)O[C@H]1C(=O)[C@@]2(C)[C@H]([C@H](OC(=O)c3ccccc3)[C@]3(O)C[C@H](OC(=O)[C@H](O)[C@@H](NC(=O)c4ccccc4)c4ccccc4)C(C)=C1C3(C)C)[C@]1(OC(C)=O)CO[C@@H]1C[C@@H]2O [Taxol],93.9
22,CC(=O)O[C@H]1C(=O)[C@@]2(C)[C@H]([C@H](OC(=O)c3ccccc3)[C@]3(O)C[C@H](OC(=O)[C@H](O)[C@@H](NC(=O)c4ccccc4)c4ccccc4)C(C)=C1C3(C)C)[C@]1(OC(C)=O)CO[C@@H]1C[C@@H]2O [Paclitaxel (Taxol)],88.5

row,SMILES,mean cytoplasmic OPP incorporation
1,NC(=O)c1cccc(-c2cccc(OC(=O)NC3CCCCC3)c2)c1,107
2,NCCCCCc1c[nH]cn1 [Impentamine dihydrobromide],99.3
3,COc1cccc2c1C(=O)c1c(O)c3c(c(O)c1C2=O)C[C@@](O)(C(=O)CO)C[C@@H]3O[C@H]1C[C@H](N)[C@@H](O)[C@H](C)O1 [Epirubicin HCl],59.5
4,CCCN(CCC)CCc1cccc2c1CC(=O)N2 [Ropinirole HCl],101
5,O=C1Cc2c([nH]c3ccc(Br)cc23)-c2ccccc2N1 [Kenpaullone],86.8 ± 4.6
6,COc1ccc(CCN2CCN(CCCc3ccccc3)CC2)cc1OC,111
7,CC[C@H]1OC(=O)C[C@@H](O)[C@H](C)[C@@H](O[C@@H]2O[C@H](C)[C@@H](O)[C@H](N(C)C)[C@H]2O)[C@@H](CCN2C[C@H](C)C[C@H](C)C2)C[C@@H](C)C(=O)/C=C/C(C)=C/[C@@H]1CO[C@@H]1O[C@H](C)[C@@H](O)[C@@H](OC)[C@H]1OC [Tilmicosin],105
8,CNCCCC12CCC(c3ccccc31)c1ccccc12 [Maprotiline hydrochloride],105 ± 2.3
9,CCc1c(O)cc(O)c(C(=O)c2ccc(OCCN3CCOCC3)c(OC)c2)c1CC(=O)N(CCOC)CCOC,91.6
10,NCC1CCN(c2nccc(-c3ccc4ccccc4c3)n2)CC1,88.3
11,Cc1coc2c1C(=O)C(=O)c1c-2ccc2c1CCCC2(C)C [Tanshinone IIA],118
12,Cc1cn2cc(C(=O)N(C)CCO)cc(N[C@@H]3CCOc4cccc(C)c43)c2n1,117
13,CC(C)(C)n1nc(-c2cccc3ccccc23)c2c(N)ncnc21 [1-Naphthyl PP1],93
14,COc1ccc2c(c1)c(CC(=O)N1CCOCC1)c(C)n2C(=O)c1ccc(Cl)cc1,112
15,OC(c1cc(C(F)(F)F)nc2c(C(F)(F)F)cccc12)C1CCCCN1 (stereo not drawn) [Mefloquine hydrochloride],108
16,CC(=O)OCOC(c1cc([N+](=O)[O-])ccc1Oc1ccc(Br)cc1)P(=O)(OCOC(C)=O)OCOC(C)=O (stereo not drawn),101
17,CN(C)Cc1cccc(N=C(c2ccccc2)c2c(O)[nH]c3cc(C(=O)N(C)C)ccc23)c1,92.8
18,C[C@@H]1C[C@H]2[C@@H]3C[C@H](F)C4=CC(=O)C=C[C@]4(C)[C@@]3(Cl)[C@@H](O)C[C@]2(C)[C@H]1C(=O)COC(=O)C(C)(C)C [Clocortolone pivalate],96.5
19,CC1(C)C[C@@H]1C(=O)N/C(=C\CCCCSC[C@H](N)C(=O)O)C(=O)O [Cilastatin sodium],96.2
20,CC1(C)C[C@@H]1C(=O)N/C(=C\CCCCSC[C@H](N)C(=O)O)C(=O)O [Cilastatin],103
21,Cc1c(C)c2c(c(C)c1OC(=O)CCC(=O)O)CC[C@@](C)(CCC[C@H](C)CCC[C@H](C)CCCC(C)C)O2 [Tocopherol succinate],96.4
